Data on 146 sequences can be found in the BET-seq Pho4 binding data (Le et al. 2018).

The list shows a part of the results. These are noisy estimates, calculated here from bound and input reads.

This assay has as its target T1, Pho4 (S. cerevisiae) (UniProt P07270).
T1 sequence: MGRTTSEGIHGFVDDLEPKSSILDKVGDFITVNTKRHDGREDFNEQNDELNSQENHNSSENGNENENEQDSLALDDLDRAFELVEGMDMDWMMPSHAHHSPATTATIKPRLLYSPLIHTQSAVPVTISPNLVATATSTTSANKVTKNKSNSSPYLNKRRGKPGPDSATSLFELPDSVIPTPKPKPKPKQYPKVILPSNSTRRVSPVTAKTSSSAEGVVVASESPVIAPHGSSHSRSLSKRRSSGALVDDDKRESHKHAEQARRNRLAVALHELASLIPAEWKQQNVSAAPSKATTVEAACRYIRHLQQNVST
As to the kind of experiment: relative binding free energy (BET-seq); higher = weaker binding. To be noted: reference: library average.
With GTAGGCACGTGACTTG, the “relative binding free energy” value worked out at 0.15 kcal/mol.
Consider GGTGCCACGTGGAGCG, for which the “relative binding free energy” value is -0.1 kcal/mol.
For CTGTGCACGTGTTTCG the value was 0.07 kcal/mol; for CAAATCACGTGTAGGG, 0.13 kcal/mol.
On to TGTTGCACGTGCGTGG, for which the “relative binding free energy” value was -0.05 kcal/mol.
As for CTAATCACGTGGGTGT, the figure is -0.16 kcal/mol.
For TTGGTCACGTGTCGGG the value was 0.16 kcal/mol; for TAAGGCACGTGAGTAT, 0.21 kcal/mol; for GTGAGCACGTGTGTCG, -0.02 kcal/mol.
As for TGATACACGTGGAGTG, the figure is -0.03 kcal/mol; as for GGTTGCACGTGCGTAA, 0 kcal/mol; as for GACGTCACGTGTTAGG, 0.22 kcal/mol.
In the case of ATAGACACGTGTTATT, the “relative binding free energy” value was -0.15 kcal/mol.
As for GGAGGCACGTGAGGGC, the figure is 0.13 kcal/mol; as for GGGGTCACGTGATGCT, 0.21 kcal/mol; as for TCGCGCACGTGGAGTG, -0.16 kcal/mol.
For GAGGGCACGTGGAGAG the value was 0.06 kcal/mol.
As for TTGTTCACGTGCGTTA, the figure is 0.17 kcal/mol; as for TCGGACACGTGGTGGC, 0.04 kcal/mol.
As to GAGGTCACGTGGAGTT, the “relative binding free energy” value was 0.2 kcal/mol.
For CGGTTCACGTGTGCTT the value was 0.37 kcal/mol; for ATGTACACGTGTTAAG, -0.07 kcal/mol; for GTGGGCACGTGCGCAT, -0.15 kcal/mol.
As for GATGTCACGTGCCGGT, the figure is 0.08 kcal/mol; as for GTTCTCACGTGCGTGG, 0.25 kcal/mol; as for CTAAACACGTGGTAGG, -0.01 kcal/mol.
As for AGGGTCACGTGCTGTT, the figure is 0.07 kcal/mol; as for TTGGCCACGTGTGGTT, 0.1 kcal/mol; as for TGACGCACGTGTGGAT, 0.04 kcal/mol.
As for TGATTCACGTGAGTAG, the “relative binding free energy” value came to 0.38 kcal/mol.
As for TAGTGCACGTGCACGT, the figure is 0.01 kcal/mol.
For TATTGCACGTGCTCGG the value was -0.17 kcal/mol; for GTGGACACGTGGGTAC, -0.04 kcal/mol.
For GTAGGCACGTGGCTTT the value was -0.04 kcal/mol.
Regarding AGGGTCACGTGACTGT, the “relative binding free energy” value was 0.3 kcal/mol.
For GGGTCCACGTGTCGGT the value was 0.11 kcal/mol; for ATACACACGTGAGGGT, 0.15 kcal/mol; for AGTGTCACGTGTCTGT, -0.12 kcal/mol.
On to ACGTACACGTGTTTGT, for which the “relative binding free energy” value was 0.09 kcal/mol.
For ATGAGCACGTGGTTCA the value was -0.06 kcal/mol; for TTCGACACGTGGGTGA, -0.09 kcal/mol.
For TAGCGCACGTGTGGAG the value was -0.05 kcal/mol; for ACGGGCACGTGCTGGG, -0.15 kcal/mol.
Consider ATTGCCACGTGAGGGG, for which the “relative binding free energy” value is 0.13 kcal/mol.
As for CTAGTCACGTGGGTTG, the figure is -0.04 kcal/mol.
For TGTGTCACGTGTAATA the value was 0.15 kcal/mol; for CTAGTCACGTGTTAGT, 0.19 kcal/mol; for AGTATCACGTGTTATA, 0.15 kcal/mol.
For TCGGACACGTGTTAGA the value was 0.25 kcal/mol; for TTAATCACGTGTAAAA, 0.23 kcal/mol.
For TAAGGCACGTGCCGGG, the “relative binding free energy” value was -0.16 kcal/mol.
For GGGGCCACGTGGGCGG the value was -0.13 kcal/mol; for CTGTCCACGTGGGGAG, -0.09 kcal/mol; for AGTAGCACGTGTCGTG, -0.13 kcal/mol.
On to CGCGGCACGTGAGTTG, for which the “relative binding free energy” value was 0.06 kcal/mol.
For CAAGTCACGTGAAGGT the value was 0.21 kcal/mol.
CATGACACGTGTGGTT: the “relative binding free energy” value worked out at 0.05 kcal/mol.
Consider GAGGTCACGTGGCTGT, for which the “relative binding free energy” value came to 0.05 kcal/mol.
As for TCTTGCACGTGGGAAT, the figure is -0.13 kcal/mol; as for ATTTTCACGTGCTGAG, 0.2 kcal/mol.
For TGACGCACGTGAGATG the value was 0.22 kcal/mol.
For GTTTACACGTGATGTG, the “relative binding free energy” value was 0.29 kcal/mol.
As for AGGTCCACGTGGGGCG, the “relative binding free energy” value is -0.14 kcal/mol.
As for TGCTGCACGTGAGGTA, the figure is 0.17 kcal/mol; as for TTGTTCACGTGCGAAG, 0.27 kcal/mol.
For TCATTCACGTGATGGA the value was 0.27 kcal/mol; for TTGTGCACGTGAAGTG, 0.25 kcal/mol.
As for GAAGTCACGTGTGGGC, the figure is 0.25 kcal/mol; as for TGCTTCACGTGTAGAG, 0.11 kcal/mol.
For ATGAGCACGTGGGAGG, the “relative binding free energy” value was -0.27 kcal/mol.
For TCCGGCACGTGGGATG the value was -0.17 kcal/mol; for TAGTACACGTGAGGAT, 0.28 kcal/mol.
Consider CTAGTCACGTGAGTTA, for which the “relative binding free energy” value is 0.27 kcal/mol.
For GTTCCCACGTGGGGTA the value was -0.17 kcal/mol; for TTAGGCACGTGACGGA, -0.09 kcal/mol.
As for CTGCACACGTGGTGGT, the figure is -0.07 kcal/mol.
As for GGTTGCACGTGGTAAG, the figure is 0.05 kcal/mol; as for ACTTGCACGTGGTATA, -0.02 kcal/mol; as for TGGGGCACGTGAGCCT, 0.08 kcal/mol.
CTTTGCACGTGTAGAG: the “relative binding free energy” value amounted to 0.01 kcal/mol.
For TCTGTCACGTGAAGGT the value was 0.26 kcal/mol; for TTGTGCACGTGTAAGT, 0.06 kcal/mol.
With GTTGCCACGTGATTGT, the “relative binding free energy” value amounted to 0.2 kcal/mol.
Regarding TGAGTCACGTGACAGT, the “relative binding free energy” value came out at 0.14 kcal/mol.
For TGCTTCACGTGCTTGG the value was 0.17 kcal/mol; for CGGTTCACGTGAAGTG, 0.42 kcal/mol.
For TTAAGCACGTGCGGGA the value was -0.15 kcal/mol; for CTGTTCACGTGGGTCT, -0.04 kcal/mol.
For CTGGGCACGTGGACGG the value was -0.13 kcal/mol; for CGGAACACGTGAGGGG, 0.22 kcal/mol.
As for CGGAGCACGTGGGTTG, the “relative binding free energy” value was -0.12 kcal/mol.
Consider GGGGCCACGTGTGATG, for which the “relative binding free energy” value came to 0.14 kcal/mol.
As for CTTGACACGTGGAGGG, the figure is 0.02 kcal/mol; as for CTTGTCACGTGGAGGT, 0.19 kcal/mol; as for AATCGCACGTGATGTT, 0.22 kcal/mol.
Turning to TGTCACACGTGGGTGT, the “relative binding free energy” value was -0.13 kcal/mol.
In the case of TGGGTCACGTGGTTCC, the “relative binding free energy” value was found to be 0.05 kcal/mol.
As for AGTACCACGTGGGGTT, the figure is -0.29 kcal/mol.
As for AGACTCACGTGGTAGG, the figure is 0.29 kcal/mol; as for TAGGGCACGTGTAACG, -0.04 kcal/mol; as for GGTGACACGTGTGTCA, 0.04 kcal/mol.
For TCAAGCACGTGGTGGT the value was -0.2 kcal/mol; for CTGGTCACGTGGGTAT, -0.02 kcal/mol.
Consider AGGCTCACGTGCGTGG, for which the “relative binding free energy” value was -0.02 kcal/mol.
For GTAAGCACGTGGGATT the value was -0.12 kcal/mol; for ATCGACACGTGTTGTG, 0.06 kcal/mol.
Take GATAGCACGTGATATT: the “relative binding free energy” value is 0.2 kcal/mol.
For GGTTTCACGTGAGGCG the value was 0.47 kcal/mol.
For AGGATCACGTGTGGAT the value was 0.25 kcal/mol.
As for TTTTGCACGTGATTTC, the figure is 0.19 kcal/mol; as for TGAATCACGTGGGAAT, 0.18 kcal/mol; as for GGGGGCACGTGCGGGC, -0.11 kcal/mol.
With GGACTCACGTGTGGTC, the “relative binding free energy” value is 0.29 kcal/mol.
For GTTATCACGTGTGTGC the value was 0.21 kcal/mol.
As for GGTTCCACGTGGTGAA, the figure is 0.11 kcal/mol; as for GTAAACACGTGATTTT, 0.22 kcal/mol.
For TTGAACACGTGGGGGG the value was -0.03 kcal/mol.
On to GTGGTCACGTGCTTTT, for which the “relative binding free energy” value amounted to 0.17 kcal/mol.
For TCAGGCACGTGCGTGT the value was -0.21 kcal/mol; for GGCTTCACGTGTCGGT, 0.2 kcal/mol; for GCTTTCACGTGATGGT, 0.29 kcal/mol.
For GGAGGCACGTGTGGTG the value was -0.01 kcal/mol.
As for AGGTGCACGTGAAGGG, the figure is 0.3 kcal/mol; as for TTTAACACGTGGAGTT, 0.15 kcal/mol; as for GTTAGCACGTGAAGGT, 0.16 kcal/mol.
As to GGAGGCACGTGGAGCG, the “relative binding free energy” value is -0.14 kcal/mol.
TATGTCACGTGAATAG: the “relative binding free energy” value was 0.36 kcal/mol.
As to TGCTTCACGTGGTAAT, the “relative binding free energy” value was determined as 0.29 kcal/mol.
For GCCTTCACGTGGGAGT the value was 0.3 kcal/mol.
As for GTCTACACGTGGCTGT, the figure is 0.18 kcal/mol.
For CTTGTCACGTGTTCGA, the “relative binding free energy” value turned out to be 0.2 kcal/mol.
AAGGGCACGTGTTACG: the “relative binding free energy” value is -0.19 kcal/mol.
As for GTGGACACGTGGTTGA, the figure is 0.04 kcal/mol.
As for TATTTCACGTGCCTGG, the figure is 0.18 kcal/mol.
As to TGGATCACGTGTGGTT, the “relative binding free energy” value was 0.35 kcal/mol.
As for AAGTGCACGTGTGATT, the figure is 0.12 kcal/mol; as for TGTGACACGTGGAGCA, 0.04 kcal/mol; as for ATTTTCACGTGGGAGC, 0.22 kcal/mol.
Consider CTTTGCACGTGTTGAG, for which the “relative binding free energy” value worked out at 0.03 kcal/mol.
For TAAGACACGTGCATGG the value was 0.06 kcal/mol; for GTAGACACGTGTGGGT, 0.06 kcal/mol.
As for TTGGGCACGTGTTTAG, the figure is -0.05 kcal/mol.
As to GGCGACACGTGACGGG, the “relative binding free energy” value is 0.13 kcal/mol.
For GCTTTCACGTGCGTTG the value was 0.16 kcal/mol.
As for CGTGGCACGTGGCGCG, the figure is -0.23 kcal/mol; as for GCGTGCACGTGCCGGG, -0.05 kcal/mol.
